Laboratory results from the supplement of paper PMC4996465.
Viability of KB3-1 and Nalm-6 cells after 48 h of drug alone (CellTiter-Glo), 11 doses over about 4.5 log units. % of DMSO wells, lower = more cell loss; AC50 from the fitted curve, lower = more potent. No active / inactive call. Nalm-6 was screened in two runs. AC50 is listed only for well-fitted inhibitory curves. KB3-1 is a HeLa-derived carcinoma line, Nalm-6 a B-cell precursor leukaemia line.

What was measured:
[1] = system: KB3-1; assay: log AC50 of viability decrease (48 h) (log10 M); higher = less potent
Procedure: (§1)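 Eleven-dose screen of the NCATS MIPE 3 library on cells without co-treatment; CellTiter-Glo after 48 h. AC50 from the curve fit; only inhibitory curves of the better fit classes are listed.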

[2] = system: Nalm-6; assay: as above
Procedure: as §1

[3] = system: KB3-1; assay: viability (% of DMSO control); higher = more viable cells
Procedure: (§2)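 Eleven-dose screen of the NCATS MIPE 3 library on cells without co-treatment; CellTiter-Glo after 48 h, as % of DMSO wells.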

[4] = system: Nalm-6; assay: as above
Procedure: as §2

SMILES | log AC50 of viability decrease [1] | log AC50 of viability decrease ([2]; run: 1) | log AC50 of viability decrease ([2]; run: 2) | viability ([3]; 0.00078 µM) [%] | viability ([3]; 0.00234 µM) [%] | viability ([3]; 0.00702 µM) [%] | viability ([3]; 0.0211 µM) [%] | viability ([3]; 0.0632 µM) [%] | viability ([3]; 0.19 µM) [%] | viability ([3]; 0.569 µM) [%] | viability ([3]; 1.71 µM) [%] | viability ([3]; 5.12 µM) [%] | viability ([3]; 15.4 µM) [%] | viability ([3]; 46.1 µM) [%] | viability ([4]; run: 1, 0.00078 µM) [%] | viability ([4]; run: 1, 0.00234 µM) [%] | viability ([4]; run: 1, 0.00702 µM) [%] | viability ([4]; run: 1, 0.0211 µM) [%] | viability ([4]; run: 1, 0.0632 µM) [%] | viability ([4]; run: 1, 0.19 µM) [%] | viability ([4]; run: 1, 0.569 µM) [%] | viability ([4]; run: 1, 1.71 µM) [%] | viability ([4]; run: 1, 5.12 µM) [%] | viability ([4]; run: 1, 15.4 µM) [%] | viability ([4]; run: 1, 46.1 µM) [%] | viability ([4]; run: 2, 0.00078 µM) [%] | viability ([4]; run: 2, 0.00234 µM) [%] | viability ([4]; run: 2, 0.00702 µM) [%] | viability ([4]; run: 2, 0.0211 µM) [%] | viability ([4]; run: 2, 0.0632 µM) [%] | viability ([4]; run: 2, 0.19 µM) [%] | viability ([4]; run: 2, 0.569 µM) [%] | viability ([4]; run: 2, 1.71 µM) [%] | viability ([4]; run: 2, 5.12 µM) [%] | viability ([4]; run: 2, 15.4 µM) [%] | viability ([4]; run: 2, 46.1 µM) [%]
COC1=C(OCCCN2CCOCC2)C=C3N=CC=C(OC4=CC=C(C=C4F)\C5=C\N=C(\NC6=CC=C(F)C=C6)N(C)C5=O)C3=C1 [AMG-51] | -4.68 | -4.83 | -4.73 | 100 | 102 | 97.6 | 102 | 101 | 93.5 | 97 | 88.8 | 84 | 75.2 | 2.19 | 95.1 | 96 | 100 | 105 | 109 | 100 | 91.4 | 88.4 | 72.7 | 37.4 | 0.953 | 103 | 97.2 | 99.4 | 96.5 | 101 | 90.9 | 90.5 | 88 | 65.9 | 56.6 | 1.57
CC#C[C@]1(O)CC[C@H]2[C@@H]/3CCC/4=C/C(=O)CCC4=C3[C@H](C[C@]12C)C5=CC=C(C=C5)N(C)C [Mifepristone] | -4.63 | -4.63 |  | 107 | 104 | 100 | 104 | 104 | 101 | 98.9 | 97.8 | 93.6 | 84.6 | 11.7 | 98.9 | 105 | 105 | 104 | 101 | 104 | 97.8 | 107 | 99.6 | 82.5 | 3.79 | 6.37 | 107 | 102 | 103 | 102 | 104 | 90.7 | 103 | 100 | 95.1 | 4.18
c1ccc2c(CCNc3ccc(Nc4ccncc4)cc3)c[nH]c2c1 [Serdemetan] | -4.68 | -5.53 | -5.73 | 101 | 99.2 | 103 | 101 | 105 | 106 | 107 | 99.6 | 92.6 | 83.8 | 34.6 | 108 | 119 | 101 | 115 | 108 | 105 | 94.1 | 72.4 | 37.6 | 15.4 | 3.54 | 92.4 | 99.1 | 96.3 | 99.3 | 102 | 101 | 93.2 | 56.4 | 12.5 | 7.07 | 3.23
C1=C/COCc2cc(ccc2OCCN2CCCC2)Nc2nccc(n2)-c2cccc(c2)OCC/1 [SB1518] | -5.58 | -5.58 | -5.43 | 95.2 | 101 | 104 | 100 | 101 | 95.7 | 95.5 | 64.1 | 42.1 | 21.3 | 107 | 112 | 120 | 123 | 115 | 113 | 107 | 112 | 74.8 | 37.6 | 16.3 | 79 | 103 | 113 | 112 | 106 | 109 | 102 | 106 | 82.2 | 39.3 | 7.61 | 106
